# From the supplement of paper PMC8728848
# Some of the results follow.
# What was measured:
# Test in all cases: glycan array binding signal (z-score within array); higher = stronger binding
# Conditions in all cases: glycan notation: IUPAC condensed, linker removed
# [1] = target: Gal(b1-4)GlcNAc(b1-3)Gal(b1-4)GlcNAc(b1-3)[Gal(b1-4)GlcNAc(b1-3)Gal(b1-4)GlcNAc(b1-6)]GalNAc
# In short: (§1)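 Columns mapping to the same glycan were averaged after glycan names were converted to IUPAC-condensed notation. The data come from 3228 arrays in the Consortium for Functional Glycomics database, limited to those with an available protein sequence. Binding is reported as a within-array Z-score averaged across arrays of one protein sequence and across linkers.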
# [2] = target: Gal(b1-4)GlcNAc(b1-3)Gal(b1-4)GlcNAc(b1-6)[Gal(b1-3)]GalNAc
# In short: as §1
# [3] = target: Gal(b1-4)GlcNAc(b1-3)Gal(b1-4)[Fuc(a1-3)]GlcNAc(b1-3)Gal(b1-4)[Fuc(a1-3)]GlcNAc
# In short: as §1
# [4] = target: Gal(b1-4)GlcNAc(b1-3)GalNAc
# In short: as §1
# [5] = target: Gal(b1-4)GlcNAc(b1-3)[Fuc(a1-3)GlcNAc(b1-6)]Gal(b1-4)Glc
# In short: as §1
# [6] = target: Gal(b1-4)GlcNAc(b1-3)[Gal(b1-4)GlcNAc(b1-6)]Gal(b1-4)GlcNAc
# In short: as §1
# [7] = target: Gal(b1-4)GlcNAc(b1-3)[GlcNAc(b1-6)]Gal(b1-4)GlcNAc
# In short: as §1
# [8] = target: Gal(b1-4)GlcNAc(b1-6)Gal(b1-4)GlcNAc
# In short: as §1
# [9] = target: Gal(b1-4)GlcNAc(b1-6)GalNAc
# In short: as §1
# [10] = target: Gal(b1-4)GlcNAc(b1-6)[Gal(b1-3)]GalNAc
# In short: as §1
# [11] = target: Gal(b1-4)GlcNAc(b1-6)[Gal(b1-4)GlcNAc(b1-3)]GalNAc
# In short: as §1
# [12] = target: Gal(b1-4)GlcNAc6P
# In short: as §1
# [13] = target: Gal(b1-6)Gal
# In short: as §1
# [14] = target: Gal3S(b1-3)GalNAc
# In short: as §1
# [15] = target: Gal3S(b1-3)GlcNAc
# In short: as §1
# [16] = target: Gal3S(b1-3)[Fuc(a1-4)]GlcNAc
# In short: as §1
# [17] = target: Gal3S(b1-4)Glc
# In short: as §1
# [18] = target: Gal3S(b1-4)Glc6S
# In short: as §1
# [19] = target: Gal3S(b1-4)GlcNAc
# In short: as §1
# [20] = target: Gal3S(b1-4)[Fuc(a1-3)]Glc6S
# In short: as §1
# [21] = target: Gal3S(b1-4)[Fuc(a1-3)]GlcNAc
# In short: as §1
# [22] = target: Gal3S(b1-4)[Fuc(a1-3)]GlcNAc6S
# In short: as §1
# [23] = target: Gal3S4S(b1-4)GlcNAc
# In short: as §1
# [24] = target: Gal3S6S(b1-4)GlcNAc
# In short: as §1
# [25] = target: Gal3S6S(b1-4)GlcNAc6S
# In short: as §1
# [26] = target: Gal4S(b1-4)GlcNAc
# In short: as §1
# [27] = target: Gal4S6S(b1-4)GlcNAc
# In short: as §1
# [28] = target: Gal6P(b1-4)GlcNAc
# In short: as §1
# [29] = target: Gal6S(b1-3)GlcNAc
# In short: as §1
# [30] = target: Gal6S(b1-3)GlcNAc6S
# In short: as §1
# [31] = target: Gal6S(b1-4)Glc
# In short: as §1
# [32] = target: Gal6S(b1-4)Glc6S
# In short: as §1
# [33] = target: Gal6S(b1-4)GlcNAc
# In short: as §1
# [34] = target: Gal6S(b1-4)GlcNAc6S
# In short: as §1
# [35] = target: GalNAc(a1-3)Gal
# In short: as §1
# [36] = target: GalNAc(a1-3)GalNAc
# In short: as §1
# [37] = target: GalNAc(a1-3)GalNAc(b1-3)Gal(a1-4)Gal(b1-4)Glc
# In short: as §1
binder,measurement,setting,value
"DC-Sign (Homo sapiens), Q9NNX6 (protein) MSDSKEPRLQQLGLLEEEQLRGLGFRQTRGYKSLAGCLGHGPLVLQLLSFTLLAGLLVQVSKVPSSISQEQSRQDAIYQNLTQLKAAVGELSEKSKLQEIYQELTQLKAAVGELPEKSKLQEIYQELTRLKAAVGELPEKSKLQEIYQELTWLKAAVGELPEKSKMQEIYQELTRLKAAVGELPEKSKQQEIYQELTRLKAAVGELPEKSKQQEIYQELTRLKAAVGELPEKSKQQEIYQELTQLKAAVERLCHPCPWEWTFFQGNCYFMSNSQRNWHDSITACKEVGAQLVVIKSAEEQNFLQLQSSRSNRFTWMGLSDLNQEGTWQWVDGSPLLPSFKQYWNRGEPNNVGEEDCAEFSGNGWNDDKCNLAKFWICKKSAASCSRDEEQFLSPAPATPNPPPA",glycan array binding signal (z-score),[1],-0.146
same,glycan array binding signal (z-score),[2],-0.097
same,glycan array binding signal (z-score),[3],-0.164
same,glycan array binding signal (z-score),[4],-0.166
same,glycan array binding signal (z-score),[5],-0.038
same,glycan array binding signal (z-score),[6],-0.106
same,glycan array binding signal (z-score),[7],-0.185
same,glycan array binding signal (z-score),[8],-0.179
same,glycan array binding signal (z-score),[9],-0.146
same,glycan array binding signal (z-score),[10],-0.171
same,glycan array binding signal (z-score),[11],-0.157
same,glycan array binding signal (z-score),[12],-0.197
same,glycan array binding signal (z-score),[13],-0.178
same,glycan array binding signal (z-score),[14],-0.168
same,glycan array binding signal (z-score),[15],-0.136
same,glycan array binding signal (z-score),[16],0.246
same,glycan array binding signal (z-score),[17],-0.167
same,glycan array binding signal (z-score),[18],-0.138
same,glycan array binding signal (z-score),[19],-0.17
same,glycan array binding signal (z-score),[20],-0.175
same,glycan array binding signal (z-score),[21],-0.116
same,glycan array binding signal (z-score),[22],-0.178
same,glycan array binding signal (z-score),[23],-0.195
same,glycan array binding signal (z-score),[24],-0.125
same,glycan array binding signal (z-score),[25],-0.135
same,glycan array binding signal (z-score),[26],-0.198
same,glycan array binding signal (z-score),[27],-0.149
same,glycan array binding signal (z-score),[28],-0.209
same,glycan array binding signal (z-score),[29],-0.139
same,glycan array binding signal (z-score),[30],-0.128
same,glycan array binding signal (z-score),[31],-0.17
same,glycan array binding signal (z-score),[32],-0.174
same,glycan array binding signal (z-score),[33],-0.101
same,glycan array binding signal (z-score),[34],-0.133
same,glycan array binding signal (z-score),[35],-0.158
same,glycan array binding signal (z-score),[36],-0.193
same,glycan array binding signal (z-score),[37],-0.133
